Paper PMC11967829
Residue numbers refer to the chain shown, from its start. No constants are given. Whether binding was seen depends on the method and setting. For part of these data: In cells and extracts the contact can be indirect. Some binding calls cover weakened binding; strength is not graded here. For part of these data: Tags and fused reporters may be left off the sequences shown. Values belong to the binder of their own block, whether it stands above or below them.

By UniProt entry, the sequences of proteins in these tests, tags left out. Where a name states a change or a piece, a line headed by the entry shows the natural chain unless it says otherwise. Chains listed by the source or under a name are the forms on record and can include a tag or linker.
UniProt P14618: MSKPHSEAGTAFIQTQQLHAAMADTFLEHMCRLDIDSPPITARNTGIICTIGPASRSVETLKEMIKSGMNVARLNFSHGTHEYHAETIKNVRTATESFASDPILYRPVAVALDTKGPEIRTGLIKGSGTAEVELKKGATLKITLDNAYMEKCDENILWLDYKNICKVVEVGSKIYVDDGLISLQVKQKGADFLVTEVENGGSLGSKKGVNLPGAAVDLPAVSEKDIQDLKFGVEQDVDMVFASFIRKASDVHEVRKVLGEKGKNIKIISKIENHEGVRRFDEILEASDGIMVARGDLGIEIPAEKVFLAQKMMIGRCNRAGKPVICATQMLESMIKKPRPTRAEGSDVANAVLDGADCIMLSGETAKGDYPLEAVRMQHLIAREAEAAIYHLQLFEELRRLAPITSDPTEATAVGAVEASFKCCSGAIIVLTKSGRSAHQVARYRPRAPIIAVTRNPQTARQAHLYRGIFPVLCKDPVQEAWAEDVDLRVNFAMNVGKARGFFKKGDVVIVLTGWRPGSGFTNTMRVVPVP
PKM1-Myc (pyruvate kinase M, isoform 1, wild type) (P14618, form named): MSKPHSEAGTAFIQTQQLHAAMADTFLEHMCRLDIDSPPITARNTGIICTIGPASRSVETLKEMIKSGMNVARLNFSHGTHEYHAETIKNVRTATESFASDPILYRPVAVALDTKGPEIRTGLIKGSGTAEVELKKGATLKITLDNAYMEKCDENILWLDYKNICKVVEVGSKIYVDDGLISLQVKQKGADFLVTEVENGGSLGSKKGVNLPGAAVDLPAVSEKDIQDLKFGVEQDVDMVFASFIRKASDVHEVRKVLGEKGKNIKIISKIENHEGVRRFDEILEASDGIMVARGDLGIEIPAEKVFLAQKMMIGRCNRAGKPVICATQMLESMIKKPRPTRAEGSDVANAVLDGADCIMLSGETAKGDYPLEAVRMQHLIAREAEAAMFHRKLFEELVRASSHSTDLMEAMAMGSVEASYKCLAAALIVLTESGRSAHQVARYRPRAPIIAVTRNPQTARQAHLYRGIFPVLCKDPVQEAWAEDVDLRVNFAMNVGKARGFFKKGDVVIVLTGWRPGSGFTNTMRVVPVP
PKM1 241-408 AA region (P14618, form named): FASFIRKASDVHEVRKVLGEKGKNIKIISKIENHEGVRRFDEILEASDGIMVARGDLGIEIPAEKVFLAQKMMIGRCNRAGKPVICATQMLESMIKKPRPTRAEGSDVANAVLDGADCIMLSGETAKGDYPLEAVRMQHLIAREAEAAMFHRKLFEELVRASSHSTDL

Key:
[1] = target: PKM2 (as used in in vitro pull-down assays) (UniProt P14618); assay: pull-down; in vitro pull-down of N13 peptide with purified PKM1 or PKM2, Coomassie blue staining (Figure 7D); both purified
[2] = target: PKM1-Myc (pyruvate kinase M, isoform 1, wild type) (UniProt P14618); assay: co-IP; truncated NUDT13 and PKM1 constructs (Figures S7B-E, S11B); cells not told
[3] = target: PKM2 (as tested by co-IP) (UniProt P14618); assay: co-IP; test of PKM2 with NUDT13; cells and panel not told (Figure 2C-D; Figure S3C)
[4] = target: PKM1-Myc (pyruvate kinase M, isoform 1, wild type) (UniProt P14618); assay: co-IP; exogenous NUDT13-Flag and PKM1-Myc in nuclear extracts from 293T cells (Figure 2H)
[5] = target: PKM1-Myc (pyruvate kinase M, isoform 1, wild type) (UniProt P14618); assay: co-IP; 293T cells co-transfected with PKM1-Myc and NUDT13-Flag WT or mutant plasmids (Figures 2C, 4A, 6C, 7C); Olaparib treatment did not affect the interaction (Figure S9O, cells not told)
PKM1 241-408 AA region = PKM1 241-408 AA region (UniProt P14618); assay: co-IP; truncated NUDT13 and PKM1 constructs (Figures S7B-E, S11B); cells not told
PKM1 in SW480 cells = PKM1 in SW480 cells (UniProt P14618); assay: co-IP; SW480 cells (Figure 2D)
[6] = target: PKM2 (as used in in vitro pull-down assays) (UniProt P14618); assay: pull-down; in vitro reciprocal pull-down assays, Coomassie blue staining (Figure 2E); both purified
[7] = target: purified recombinant PKM1 (UniProt P14618); assay: as above

- binding [1]: no binding
B1: N13 peptide (mimic peptide of NUDT13 230–252 AA) (peptide, UniProt Q86X67 230-252)
peptide: GFCDIGESVEETIRREVAEEVGL

- binding [2]: binds
B2: NUDT13 residues 206-260 (domain or fragment, UniProt Q86X67 206-260)
chain: VSDGTRCLLARQSSFPKGMYSALAGFCDIGESVEETIRREVAEEVGLEVESLQYY

- binding [2]: binds
B3: Nudix hydrolase (NH) domain of NUDT13 (domain or fragment, UniProt Q86X67 196-323)
chain: PQMAPVAITLVSDGTRCLLARQSSFPKGMYSALAGFCDIGESVEETIRREVAEEVGLEVESLQYYASQHWPFPSGSLMIACHATVKPGQTEIQVNLRELETAAWFSHDEVATALKRKGPYTQQQNGTF

- binding [3]: no binding
- binding [4]: binds
- binding [5]: binds
- binding (PKM1 241-408 AA region): binds
B4: NUDT13-Flag (Nudix hydrolase 13, wild type) (protein, UniProt Q86X67 21-352)
chain: STYVTKTRYLFELKEDDDACKKAQQTGAFYLFHSLAPLLQTSAHQYLAPRHSLLELERLLGKFGQDAQRIEDSVLIGCSEQQEAWFALDLGLDSSFSISASLHKPEMETELKGSFIELRKALFQLNARDASLLSTAQALLRWHDAHQFCSRSGQPTKKNVAGSKRVCPSNNIIYYPQMAPVAITLVSDGTRCLLARQSSFPKGMYSALAGFCDIGESVEETIRREVAEEVGLEVESLQYYASQHWPFPSGSLMIACHATVKPGQTEIQVNLRELETAAWFSHDEVATALKRKGPYTQQQNGTFPFWLPPKLAISHQLIKEWVEKQTCSSLPA

- binding (PKM1 in SW480 cells): binds
B5: NUDT13 in SW480 cells (protein, UniProt Q86X67 21-352)
chain: B4 chain

- binding [5]: binds
B6: NUDT13-Flag EQ mutant (E245/248/249Q) (protein, UniProt Q86X67 21-352)
chain: B4 chain with E225Q, E228Q, E229Q

- binding [6]: no binding
- binding [7]: binds
B7: purified NUDT13 (recombinant hNUDT13) (protein, UniProt Q86X67 21-352)
chain: B4 chain

- binding [5]: no binding
B8: NUDT13-Flag △230–252 (protein, UniProt Q86X67)
chain: STYVTKTRYLFELKEDDDACKKAQQTGAFYLFHSLAPLLQTSAHQYLAPRHSLLELERLLGKFGQDAQRIEDSVLIGCSEQQEAWFALDLGLDSSFSISASLHKPEMETELKGSFIELRKALFQLNARDASLLSTAQALLRWHDAHQFCSRSGQPTKKNVAGSKRVCPSNNIIYYPQMAPVAITLVSDGTRCLLARQSSFPKGMYSALAEVESLQYYASQHWPFPSGSLMIACHATVKPGQTEIQVNLRELETAAWFSHDEVATALKRKGPYTQQQNGTFPFWLPPKLAISHQLIKEWVEKQTCSSLPA
